Source: PubChem BioAssay AID463173 (ICCB-Longwood Screening Facility, Harvard Medical School, 2010)
The campaign covered roughly 52,000 compounds. About 4,300 (8.3%) were called active. Cut-off read from the data, not from the text of the source: active = survival mostly below about 52% (no sharp cut-off); inactive = mostly above about 56%. Some of the results follow.

Test system: DeltatarO mutant
Assay: S. aureus survival, RN4220 and DeltatarO strains – OD600, teichoic acid synthesis inhibitors, primary screen (AID 463173)
Settings: S. aureus RN4220 wild type/DeltatarO growth, OD600, 18 h, stronger effect = lower value, screened at 18.75 µg/mL (by protocol)

Row | SMILES | survival
1 | Cc1cc(C)c(OCC(=O)N(Cc2ccco2)Cc2ccco2)c(C)c1 | inactive: 66%
2 | CCOC(=O)c1ccc(NS(=O)(=O)c2ccc(-c3cc(C)no3)cc2)cc1 | inactive: 102%
3 | CC(C)(C)n1nnnc1C(c1ccc2ncccc2c1)N1CCOCC1 (stereo unspecified) | inactive: 71%
4 | Cc1ccc(C)c(NC(=O)c2cc(S(=O)(=O)N3CCCc4ccccc43)ccc2F)c1 | inactive: 82%
5 | COc1ccc(Cn2ccc3nc(C)c(C(=O)Nc4cc(C)cc(C)c4)cc3c2=O)cc1 | inactive: 102%
6 | COc1ccccc1CCNC(=O)c1ccc(-c2nc(CSc3ccc(C)cc3)c(C)o2)cc1 | inactive: 70%
7 | Oc1ccc2ccccc2c1CN1CCOCC1 | inactive: 72%
8 | CSc1ncc(C(=O)Nc2c(C)cccc2C)c(-c2ccccc2)n1 | inactive: 99%
9 | Cc1nc2ccccc2c(=O)n1-c1ccc(NC(=O)c2cccc([N+](=O)[O-])c2)cc1 | inactive: 75%
10 | Cc1ccc(S(=O)(=O)C2(C(=O)O)CC2)cc1C | inactive: 99%
11 | Cc1oc(-c2ccc(C(=O)NCc3ccc(Cl)cc3)cc2)nc1CS(=O)(=O)c1ccccc1 | inactive: 87%
12 | CCn1c(=N)c(C(=O)NCc2ccccc2)cc2c(=O)n3cc(C)ccc3nc21 | inactive: 55%
13 | CCCNS(=O)(=O)c1ccc(-n2cnnn2)c(OC)c1 | inactive: 103%
14 | CCCCNC(=O)C(Cc1ccccc1)NS(=O)(=O)c1ccc2c(c1)c(=O)n(C)c(=O)n2C (stereo unspecified) | inactive: 86%
15 | CCC1CN(C(=O)NCc2ccc(C)cc2)c2ccccc2O1 (stereo unspecified) | inactive: 104%
16 | CC(C)c1ccc(N2C(=O)CS(=O)(=O)C23C(=O)N(Cc2cccc(F)c2)c2ccccc23)cc1 (stereo unspecified) | inactive: 69%
17 | CCOc1ccc(-c2ncnn2-c2sc3c(c2C#N)CCCCC3)cc1 | active: 5%
18 | CCOc1ccc(NC(=O)c2cnc3ccccn3c2=O)cc1 | inactive: 113%
19 | Cc1ccc2c(CC(=O)Nc3c(C(=O)c4ccc(C)c(F)c4)oc4ccccc34)coc2c1 | inactive: 96%
20 | COc1cc(C2CC(=O)Nc3c2c(C)nn3-c2nncc(-c3ccc(C)cc3)n2)cc(OC)c1OC (stereo unspecified) | inactive: 92%
21 | O=C(CN1CCC(n2nnc3ccccc32)CC1)Nc1ccccc1Cl | inactive: 94%
22 | COc1ccc(S(=O)(=O)c2c(O)c3ccc(C(=O)NCc4ccc(F)cc4)cc3[nH]c2=O)cc1 | inactive: 108%
23 | COc1ccc(NC(=O)CSc2nc(-c3ccc(F)cc3)[nH]c2-c2ccc(C)cc2)cc1OC | inactive: 64%

Row | SMILES | survival
24 | CC(=O)c1ccc(NC(=O)c2cnn(-c3cccc(F)c3)c2-n2cccc2)cc1 | inactive: 94%
25 | CCCCOc1ccc(C2(C)CC(=O)NC2=O)cc1 (stereo unspecified) | inactive: 92%
26 | Cc1ccc(CNC(=O)c2cc(C)nc3c2c(C)nn3-c2ccc(C)cc2)cc1 | inactive: 55%
27 | CCOC(=O)c1c(NC(=O)c2cc3ccccc3c(=O)o2)sc2c1CCC(C)C2 (stereo unspecified) | inactive: 129%
28 | COc1ccc(-n2c(=O)c3ccccc3n(CC(=O)Nc3ccccc3OC)c2=O)cc1 | inactive: 73%
29 | COc1cc(OC)cc(C(=O)Nc2cc3c(cc2N2CCCC2)n(C)c(=O)c(=O)n3C)c1 | inactive: 126%
30 | CCc1c(C)[nH][n+]2cnn(Cc3ccc(Cl)cc3)c2c1=O | inactive: 89%
31 | Cc1ccc2nc(SCC(=O)N(C)C3CCCCC3)c(C#N)cc2c1 | inactive: 98%
32 | O=C(Nc1ccc(Oc2ccccc2)cc1)C1CCN(S(=O)(=O)c2ccc(Cl)cc2)CC1 | inactive: 52%
33 | CCOC(=O)c1cc(S(=O)(=O)NCc2ccc(C)cc2)[nH]n1 | inactive: 130%
34 | COc1ccccc1NC(=O)CCCc1nnc2n(C)c(=O)c3sccc3n12 | inactive: 96%
35 | CC(C)Nc1nc(C#N)nc(NC(C)C)n1 | inactive: 93%
36 | O=S(=O)(c1ccc(Cl)cc1)c1nc(-c2ccco2)oc1SCc1ccc(F)cc1 | inactive: 57%
37 | COc1ccc(CCN2C(=O)c3[nH]nc(-c4ccccc4O)c3C2c2ccc(OC)cc2)cc1 (stereo unspecified) | active: 29%
38 | CC(C)CCNC(=O)C1CCN(Cc2ccccc2Cl)CC1 | inactive: 84%
39 | CCOC(=O)c1[nH]c(C)c(/C=N/O)c1C | inactive: 93%
40 | COc1ccc(-c2nc(SCC(=O)Nc3ccc4c(c3)OCCO4)c(-c3ccc(C)cc3)[nH]2)cc1OC | inactive: 49%
41 | O=C(Nc1cccnc1)Nc1c[nH]c2c(Cl)cccc2c1=O | inactive: 89%
42 | Cc1ccccc1Nc1c(-c2ccc(N3CCOCC3)cc2)nc2ccccn12 | active: 41%
43 | COc1ccc(NC(=O)CSc2ccc3nc(-c4ccccc4)cn3n2)cc1OC | inactive: 113%
44 | CC(C)NC(=O)c1nn(-c2ccccc2F)nc1CO | inactive: 98%
45 | O=C(CSc1nnc(-c2ccc(S(=O)(=O)N3CCCC3)cc2)n1CC1CCCO1)NC1CC1 (stereo unspecified) | inactive: 99%
46 | Cc1ccc(CNC(=O)CN2C(=O)COc3ccc(S(=O)(=O)Nc4ccccc4)cc32)cc1 | active: -4%

Row | SMILES | survival
47 | CC(C)(C)OC(=O)N1CCC(c2nnc(SCc3cccc(Cl)c3)o2)CC1 | active: 1%
48 | Cc1ccc2nc3sc(C(=O)NCCCN(C)c4ccccc4)cc3cc2c1 | inactive: 115%
49 | COc1ccccc1CNC(=O)CCC1N=C2c3ccccc3N=C(SCc3ccc(C)cc3C)N2C1=O (stereo unspecified) | inactive: 63%
50 | COC(CNS(=O)(=O)c1ccc(S(=O)(=O)NC2CC2)cc1)OC | inactive: 74%
51 | Fc1cccc(-n2ncc3c2ncn2nc(Cc4ccccc4)nc32)c1 | inactive: 76%
52 | CC(=O)c1ccc(NC(=O)c2cc3sccc3n2Cc2ccc(F)cc2)cc1 | inactive: 76%
53 | CCn1c(SCCC#N)nnc1-c1ccncc1 | inactive: 98%
54 | Cc1cc(C)cc(NC(=O)c2cc(CN3CCCC3)on2)c1 | inactive: 88%
55 | CCCCCOC(=O)CSc1ncnc2sc3c(c12)CCC(C)C3 (stereo unspecified) | active: -4%
56 | CCc1ccc(NC(=O)CC2C(=O)N(c3cccc(OC)c3)C(=O)N2C2CCCC2)cc1 (stereo unspecified) | inactive: 108%
57 | Cc1ccc(C)c(NC(=S)N2CCC(c3nc4ccccc4o3)CC2)c1 | inactive: 98%
58 | Cc1ccc2c(c1)-c1ncc(C(=O)c3ccccc3O)cc1CO2 | active: 3%
59 | Cc1ccc(C(=O)NC2=NC(c3ccc(C)cc3)CC(=O)N2)cc1 (stereo unspecified) | inactive: 120%
60 | COc1ccc(-n2ncc3c(NC4CCCC4)ncnc32)cc1 | inactive: 131%
61 | COc1ccc(S(=O)(=O)Nc2ccc(-c3cn4c(C)csc4n3)cc2)cc1 | inactive: 94%
62 | COc1cc(C2C(C(=O)c3ccco3)=C(O)C(=O)N2CCc2ccccc2)ccc1O (stereo unspecified) | inactive: 86%
63 | Cc1ccc(N2CCN(S(=O)(=O)c3cccc4ccccc34)CC2)cc1Cl | inactive: 120%
64 | COc1ccccc1S(=O)(=O)Cc1ccc(C(=O)NCc2ccc(Cl)cc2)o1 | inactive: 73%
65 | COc1ccc(-c2csc(N)n2)cc1C | inactive: 97%
66 | O=C(Nc1cccc(C(F)(F)F)c1)c1cc(CN2CCOCC2)on1 | inactive: 120%
67 | COc1cccc(CNC(=O)COc2cc(=O)n(C)c3ccccc23)c1 | inactive: 72%
68 | Cc1ccc(-n2nnnc2CNC(=O)c2cc(C(F)(F)F)cc(C(F)(F)F)c2)cc1C | active: 0%
69 | CCN(CC)C(=O)c1cc2sccc2n1Cc1ccc(F)cc1 | inactive: 100%

Row | SMILES | survival
70 | CCc1cccc(NC(=O)CCNS(=O)(=O)c2cccc3nonc23)c1 | inactive: 97%
71 | COC(=O)c1ccc(NC(=O)c2nc(-c3ccc(Cl)cc3)n3c2CCCCC3)cc1 | inactive: 78%
72 | CCOc1ccc2nc(SCC(=O)O)c(C)cc2c1 | inactive: 78%
73 | CCCCNC(=O)c1ccc2c(c1)ncn2-c1cc(OC)ccc1OC | inactive: 112%
74 | Cc1c(Cl)cccc1-n1ncc(C(=O)Nc2ccc(Br)cc2F)c1C1CCNCC1 | inactive: 87%
75 | CCCn1c(SCC(=O)N(C2CCCCC2)C2CCCCC2)nc2c1c(=O)n(C)c(=O)n2C | inactive: 90%
76 | O=C(Nc1ccccc1F)c1ccc2c(Cl)c3c(nc2c1)CCC3 | active: 21%
77 | CCOc1ccccc1CNCc1cccn1-c1nnc(N2CCN(c3ccccc3)CC2)s1 | active: 47%
78 | CCN(CCCNC(=O)c1nn(-c2ccc(OC)cc2)c(=O)c2c1c1ccccc1n2C)c1ccccc1 | inactive: 75%
79 | O=C(CC(c1ccccc1)c1ccccc1)N1CCN(Cc2ccc3c(c2)OCO3)CC1 | inactive: 67%
80 | COc1ccccc1C(=O)NCC(c1cccnc1)N1CCc2ccccc2C1 (stereo unspecified) | inactive: 68%
81 | CCCOC(=O)c1c(NC(=O)C(C)Sc2nc(-c3ccccc3)cc(C(F)(F)F)n2)sc(C(=O)N(C)C)c1C (stereo unspecified) | inactive: 132%
82 | Cc1cccc(N2CCN(C(=O)CN3C(=O)CSc4c3c(C)nn4-c3ccccc3)CC2)c1C | inactive: 83%
83 | CC(C)(C)CC(=O)NCC(c1ccc2c(c1)OCO2)N1CCN(c2ccccc2)CC1 (stereo unspecified) | inactive: 77%
84 | O=C1C(c2ccc(F)cc2)N(CCc2ccc(Cl)cc2)C(=O)CN1C1CCCCCC1 (stereo unspecified) | inactive: 67%
85 | CCC(C)NC(=O)Cn1c(=O)n(CCCCCC(=O)NCc2ccccc2Cl)c(=O)c2sccc21 (stereo unspecified) | inactive: 127%
86 | CC(=O)c1ccc(NC(=O)c2cc(-c3ccc(C)s3)nc3ccccc23)cc1 | inactive: 65%
87 | O=C(NCc1cccc(Br)c1)c1cnn(-c2ccc(F)cc2)c1-n1cccc1 | inactive: 89%
88 | CCOC(=O)Cn1cnc2sc(C(=O)OCC)c(C)c2c1=O | inactive: 95%
89 | COc1cc(NC(=O)N2c3ccccc3Sc3ccccc32)cc(OC)c1 | inactive: 62%
90 | O=C(CSc1nccn1-c1ccc(Cl)cc1)Nc1ccc(Cl)c(Cl)c1 | inactive: 90%
91 | CCOC(=O)N1CCc2c(sc3c2c(=O)n(CCc2ccccc2)c(=O)n3CC(=O)Nc2ccc(C)cc2)C1 | inactive: 74%
